Source: the RNAGym collection of RNA variant scans (doi:10.1073/pnas.2313332121)
Variants at the floor of the assay are shown more often than the library holds them.

B1: TPR 5TU (parent)
chain: GGAUCUUCUCGAUCUAACAAAAAAGACAAAUCUGCCACAAAGCUUGAGAGCAUCUUCGGAUGCAGAGGCGGCAGCCUUCGGUGGCGCGAUAGCGCCAACGUUCUCAACUAUGACACGCAAAACGCGUGCUCCGUUGAAUGGAGUUUAUCAUG

Variants of: B1
Assay: polymerase ribozyme fitness, log enrichment relative to wild type (log ratio); higher = more active; in vitro selection for triplet polymerase activity
How it was run: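 Each subunit of a heterodimeric triplet polymerase ribozyme was represented by a PCR-built, transcribed mutant library that underwent triplicate single-round in vitro selection with frozen incubation at −7 °C. Extended constructs were recovered by gel excision, streptavidin-bead capture and RT-PCR, and Illumina sequencing of input and output libraries kept genotypes with ≥10 input reads and ≥1 read per output. Fitness is the logarithm of genotype enrichment relative to wild-type enrichment, from inverse-variance-weighted replicate averages, with a logarithm base of 2.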

U44G G143C and C43U U55A U146G cannot be ordered by “polymerase ribozyme fitness (log ratio)” value: at most -4.2 for the first, at most -4.2 for the second.

C43U A66C G86A C114G A119U A137U A150G and U44A A73U C105G A120G cannot be ordered by “polymerase ribozyme fitness (log ratio)” value: at most -4.2 for the first, at most -4.2 for the second.

U44A G92U C96U C105A G126C and U44A G74A cannot be ordered by “polymerase ribozyme fitness (log ratio)” value: at most -4.2 for the first, at most -4.2 for the second.

U44A G59C C96U C108G U135G and C43U G62A A66C G83C U90A cannot be ordered by “polymerase ribozyme fitness (log ratio)” value: at most -4.2 for the first, at most -4.2 for the second.

U45A C85A A121G G140A and U45A C85U C87U C96G cannot be ordered by “polymerase ribozyme fitness (log ratio)” value: at most -4.2 for the first, at most -4.2 for the second.

Going from U44A G50A U77A U78A C93G A115C G133A G141A to U44C A73U G92A C114U, the “polymerase ribozyme fitness (log ratio)” value falls from -4.14 to at most -4.2.

C43U G50C U55G A89U C95A A98U G124A C131G and U44G G50C G84A A113U U135A G136U cannot be ordered by “polymerase ribozyme fitness (log ratio)” value: at most -4.2 for the first, at most -4.2 for the second.

U44A G92C C132A and U44A U55A G81U C95G G141C cannot be ordered by “polymerase ribozyme fitness (log ratio)” value: at most -4.2 for the first, at most -4.2 for the second.

U44A C131G and U44C C57A U77G A89C A106U G124A G143U G152A cannot be ordered by “polymerase ribozyme fitness (log ratio)” value: at most -4.2 for the first, at most -4.2 for the second.

U44A C87A and U44G C54A G86U A106G cannot be ordered by “polymerase ribozyme fitness (log ratio)” value: at most -4.2 for the first, at most -4.2 for the second.

C43U U45C C72U U77G G88U G92U C99G and U45A G46C A98U cannot be ordered by “polymerase ribozyme fitness (log ratio)” value: at most -4.2 for the first, at most -4.2 for the second.

C43U A47G A49C C93G C99A C103A C108U U145C and U45A C75U U90A C93U A119U G141C cannot be ordered by “polymerase ribozyme fitness (log ratio)” value: at most -4.2 for the first, at most -4.2 for the second.

C43U A47G A64C G67U C96U G141A and C43U A64C A89U C96A U135C A150G cannot be ordered by “polymerase ribozyme fitness (log ratio)” value: at most -4.2 for the first, at most -4.2 for the second.

C43U C54G U56A C85G G88A G128A C131U U144G and U44A U61A C93G A113U cannot be ordered by “polymerase ribozyme fitness (log ratio)” value: at most -4.2 for the first, at most -4.2 for the second.

C43U C85G and C43U A52C C57U G83A A89C cannot be ordered by “polymerase ribozyme fitness (log ratio)” value: at most -4.2 for the first, at most -4.2 for the second.

U44A C125G and U44A C69A A138U G140C cannot be ordered by “polymerase ribozyme fitness (log ratio)” value: at most -4.2 for the first, at most -4.2 for the second.

C43U A73G C79A U134A and U45A A66U cannot be ordered by “polymerase ribozyme fitness (log ratio)” value: at most -4.2 for the first, at most -4.2 for the second.

U44A A47C C76A C93U C125G and C43U C99G U151C cannot be ordered by “polymerase ribozyme fitness (log ratio)” value: at most -4.2 for the first, at most -4.2 for the second.

C43U C96U A137U and U44G C51A A73C C95U U101G cannot be ordered by “polymerase ribozyme fitness (log ratio)” value: at most -4.2 for the first, at most -4.2 for the second.

U44C G86U C103G G140A U148A and U44C U77G C85G cannot be ordered by “polymerase ribozyme fitness (log ratio)” value: at most -4.2 for the first, at most -4.2 for the second.

U44C A89U C103A A120U and U44C G86C cannot be ordered by “polymerase ribozyme fitness (log ratio)” value: at most -4.2 for the first, at most -4.2 for the second.

U44G A52G U53A C75A and U45A G50A U135G cannot be ordered by “polymerase ribozyme fitness (log ratio)” value: at most -4.2 for the first, at most -4.2 for the second.

U44A G88U C93G and U44A U82C A113G cannot be ordered by “polymerase ribozyme fitness (log ratio)” value: at most -4.2 for the first, at most -4.2 for the second.

Compared with U44A C93U C99A U111G A138G G152U, U44G U45G U61C C99G is lower in “polymerase ribozyme fitness (log ratio)” value: -3.36 for the first, at most -4.2 for the second.

U44A G86U and U45A A66C C76A G88C G92C A121G G128C cannot be ordered by “polymerase ribozyme fitness (log ratio)” value: at most -4.2 for the first, at most -4.2 for the second.

Compared with U44A C54A U77A G92C C118A A120G G136C G140A, U45A C76U A98U G100C U101G A106U is higher in “polymerase ribozyme fitness (log ratio)” value: at most -4.2 for the first, -4 for the second.

U44A C85G U90C U104G and U45A G58A G65C C95U C105U cannot be ordered by “polymerase ribozyme fitness (log ratio)” value: at most -4.2 for the first, at most -4.2 for the second.

C43U U127G and U44G A119U U145G cannot be ordered by “polymerase ribozyme fitness (log ratio)” value: at most -4.2 for the first, at most -4.2 for the second.

U44C G92C A138G G140A and U44G U45G G86C C114A C125U cannot be ordered by “polymerase ribozyme fitness (log ratio)” value: at most -4.2 for the first, at most -4.2 for the second.

Going from U45A A106G to U45A C51U G65U A66G G88U A121G U135C, the “polymerase ribozyme fitness (log ratio)” value falls from -1.7 to at most -4.2.

C43G U53A A60U C96A U148G and U44G U61A C87U C93G A110U G136U cannot be ordered by “polymerase ribozyme fitness (log ratio)” value: at most -4.2 for the first, at most -4.2 for the second.

C43U A47U C51U A52G G143A and C43G U53G G70A C99G A113G C118G cannot be ordered by “polymerase ribozyme fitness (log ratio)” value: at most -4.2 for the first, at most -4.2 for the second.

C43U G50U U55A C76U G136A G152U and C43U A106G cannot be ordered by “polymerase ribozyme fitness (log ratio)” value: at most -4.2 for the first, at most -4.2 for the second.

U44G C54G A64U U135A A150U and U44G A66G C87G cannot be ordered by “polymerase ribozyme fitness (log ratio)” value: at most -4.2 for the first, at most -4.2 for the second.

U45A A91C C95G A142U and C43U C76A C95U U135A cannot be ordered by “polymerase ribozyme fitness (log ratio)” value: at most -4.2 for the first, at most -4.2 for the second.

U45A G50A C87U A98G A115C U127A A147U and U45A A73U cannot be ordered by “polymerase ribozyme fitness (log ratio)” value: at most -4.2 for the first, at most -4.2 for the second.

U44A U139A C149A A150C and U44A G46C C57A U61C C69A A89G C123U cannot be ordered by “polymerase ribozyme fitness (log ratio)” value: at most -4.2 for the first, at most -4.2 for the second.

U45A A52G G67A G83U U102A U144A and U44A C57A G70U G80A A89U C95G C125G G126A G143U cannot be ordered by “polymerase ribozyme fitness (log ratio)” value: at most -4.2 for the first, at most -4.2 for the second.

U45A C57U G86A U90G and U45A G46C U56A G84U G88U U90G C99A cannot be ordered by “polymerase ribozyme fitness (log ratio)” value: at most -4.2 for the first, at most -4.2 for the second.

U44G G48U G86A G100C C105A G126A U134C and U44A U61G A66C A91U C132U G141C cannot be ordered by “polymerase ribozyme fitness (log ratio)” value: at most -4.2 for the first, at most -4.2 for the second.

U44G A97U A121U G143A and C43U G59A C95U U135G cannot be ordered by “polymerase ribozyme fitness (log ratio)” value: at most -4.2 for the first, at most -4.2 for the second.

U45A C99A and U44A G92A C93A G141C cannot be ordered by “polymerase ribozyme fitness (log ratio)” value: at most -4.2 for the first, at most -4.2 for the second.
